# Assay results from the supplement of paper PMC12217912.
# This is one part of the list. The full chains were built here from the parent and the listed change. Values near 0.05 are background.
# B1: TEV protease; numbered along this chain (parent)
# chain: MGESLFKGPRDYNPISSSICHLTNESDGHTTSLYGIGFGPFIITNKHLFRRNNGTLVVQSLHGVFKVKDTTTLQQHLVDGRDMIIIRMPKDFPPFPQKLKFREPQREERICLVTTNFQTKSMSSMVSDTSCTFPSGDGIFWKHWIQTKDGQCGSPLVSTRDGFIVGIHSASNFTNTNNYFTSVPKNFMELLTNQEAQQWVSGWRLNADSVLWGGHKVFMVKPEEPFQPVKEATQL
# Variants of: B1
# Assay: raw area under fraction-flipped curve 0-4 h after induction (AUC4h, not background-subtracted), DNA-recorder readout of cleavage of the substrate (dimensionless); higher = more cleavage of the substrate by the protease variant
# Details: temperature: 34 °C; time window: 0-4 h after rhamnose induction
# Procedure: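 In vivo DNA recorder in E. coli TOP10(DE3) ΔrhaA at 34 °C. Each TEVp single-site mutant (parent TEVp 0) is paired with a single-site variant of the 7-mer TEVs (canonical ENLYFQ|S). The substrate sits between flexible linkers in a Bxb1-sfGFP-TEVs-SsrA fusion, so cleavage stabilises Bxb1 and speeds flipping of a recombination array, read by NGS. The value is the raw area under the fraction-flipped curve over 0-4 h after rhamnose induction (AUC4h), with ≥20 reads per time point. It is not background-subtracted; inactive controls average about 0.047.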
# 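Also: Bxb1 expression induced with 0.2% (w/v) L-rhamnose at OD600 near 0.5, cultures sampled hourly, flipped fraction per protease–substrate barcode pair counted by paired-end Illumina sequencing.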
Variant,area with substrate ENLYFAS,area with substrate ENLYFES,area with substrate ENLYFIS,area with substrate ENLYFPS,area with substrate ENLYFTS,area with substrate ENLYFGS,area with substrate ENLYFKS,area with substrate ENLYFMS,area with substrate ENLYFNS,area with substrate ENLYFWS
MGESLFKGPRDYNPISSSICHLTNESDGHTTSLYGIGFGPFIITNKHLFRRNNGTLVVQSLHGVFKVKDTTTLQQHLVDGRDMIIIRMPKDFPPFPQKLKFREPQREERICLVTTNFQTKSMSSMVSDTSCTFPSGDGIFWKHWIQTKDAQCGSPLVSTRDGFIVGIHSASNFTNTNNYFTSVPKNFMELLTNQEAQQWVSGWRLNADSVLWGGHKVFMVKPEEPFQPVKEATQL [G150A],0.0617,0.062,0.0545,0.0655,0.0599,–,–,–,–,–
MGESLFKGPRDYNPISSSICHLTNESDGHTTSLYGIGFGPFIITNKHLFRRNNGTLVVQSLHGVFKVKDTTTLQQHLVDGRDMIIIRMPKDFPPFPQKLKFREPQREERICLVTTNFQTKSMSSMVSDTSCTFPSGDGIFWKHWIQTKDGQCGSPLVSTRGGFIVGIHSASNFTNTNNYFTSVPKNFMELLTNQEAQQWVSGWRLNADSVLWGGHKVFMVKPEEPFQPVKEATQL [D161G],0.0474,0.0556,0.0568,0.0521,–,0.0594,0.0683,0.0629,0.0652,0.0613
MGESLFKGPRDYNPISSSICHLTNESDGHTTSLYGIGFGPFIITNKHLFRRNNGTLVVQSLHGVFKVKDTTTLQQHLVDGRDMIIIRMPKDFPPFPQKLKFREPQREERICLVTTNFQTKSMSSMVSDTSCTFPSGDGIFWKHWIQTKDGQCGSPLVVTRDGFIVGIHSASNFTNTNNYFTSVPKNFMELLTNQEAQQWVSGWRLNADSVLWGGHKVFMVKPEEPFQPVKEATQL [S158V],0.0308,0.0475,0.0589,0.0465,–,0.049,–,0.0477,0.0533,0.0546
MGESLFKGPRDYNPISSSICHLTNESDGHTTSLYGIGFGPFIITNKHLFRRNNGTLVVQSLHGVFKVKDTTTLQQHLVDGRDMIIIRMPKDFPPFPQKLKFREPQREERICLVTTNFQTKSMSSMVSDTSCTFPSGDGIFWKHWIQTKDGQCGSPLVSTRDGFIVGIHSAYNFTNTNNYFTSVPKNFMELLTNQEAQQWVSGWRLNADSVLWGGHKVFMVKPEEPFQPVKEATQL [S171Y],0.0464,0.0563,0.0571,0.0607,0.0592,0.069,–,0.061,0.0453,–
MGESLFKGPRDYNPISSSICHLTNESDGHTTSLYGIGFGPFIITNKHLFRRNNGTLVVQSLHGVFKVKDTTTLQQHLVDGRDMIIIRMPKDFPPFPQKLKFREPQREERICLVTTNFQTKSMSSMVSDTSCTFPSGDGIFWKHWIQTKDGQCGSPLVSTRDGFIVEIHSASNFTNTNNYFTSVPKNFMELLTNQEAQQWVSGWRLNADSVLWGGHKVFMVKPEEPFQPVKEATQL [G166E],0.0489,0.0574,0.0467,0.0551,–,–,–,0.0535,–,0.053
MGESLFKGPRDYNPISSSICHLTNESDGHTTSLYGIGFGPFIITNKHLFRRNNGTLVVQSLHGVFKVKDTTTLQQHLVDGRDMIIIRMPKDFPPFPQKLKFREPQREERICLVTTNFQTKSMSSMVSDTSCTFPSGDGIFWKHWIQTKDGQCGSPLVSTRDGFIVGIHSWSNFTNTNNYFTSVPKNFMELLTNQEAQQWVSGWRLNADSVLWGGHKVFMVKPEEPFQPVKEATQL [A170W],0.0608,–,0.0615,0.0666,0.0615,–,–,–,0.0362,–
MGESLFKGPRDYNPISSSICHLTNESDGHTTSLYGIGFGPFIITNKHLFRRNNGTLVVQSLHGVFKVKDTTTLQQHLVDGRDMIIIRMPKDFPPFPQKLKFREPQREERICLVTTNFQTKSMSSMVSDTSCTFPSGDGIFWKHWIQTKDGQCGSPLVSTRDGFIVGIHSESNFTNTNNYFTSVPKNFMELLTNQEAQQWVSGWRLNADSVLWGGHKVFMVKPEEPFQPVKEATQL [A170E],0.0432,–,0.0462,0.0558,–,–,0.0694,0.0562,–,–
MGESLFKGPRDYNPISSSICHLTNESDGHTTSLYGIGFGPFIITNKHLFRRNNGTLVVQSLHGVFKVKDTTTLQQHLVDGRDMIIIRMPKDFPPFPQKLKFREPQREERICLVTTNFQTKSMSSMVSDTSCTFPSGDGIFWKHWIQTKDGQCGSPLVSTRDGFIVGIHSASAFTNTNNYFTSVPKNFMELLTNQEAQQWVSGWRLNADSVLWGGHKVFMVKPEEPFQPVKEATQL [N172A],0.0486,–,–,0.0661,–,–,0.0584,0.0506,0.0639,–
MGESLFKGPRDYNPISSSICHLTNESDGHTTSLYGIGFGPFIITNKHLFRRNNGTLVVQSLHGVFKVKDTTTLQQHLVDGRDMIIIRMPKDFPPFPQKLKFREPQREERICLVTTNFQTKSMSSMVSDTSCTFPSGDGIFWKHWIQTKDGQCGSPLVSTRDGFIVGIHSASMFTNTNNYFTSVPKNFMELLTNQEAQQWVSGWRLNADSVLWGGHKVFMVKPEEPFQPVKEATQL [N172M],0.0462,–,–,–,–,–,–,0.0378,–,–
MGESLFKGPRDYNPISSSICHLTNESDGHTTSLYGIGFGPFIITNKHLFRRNNGTLVVQSLHGVFKVKDTTTLQQHLVDGRDMIIIRMPKDFPPFPQKLKFREPQREERICLVTTNFQTKSMSSMVSDTSCTFPSGDGIFWKHWIQTKDGQCGSPLVSTRDGFIVGIHKASNFTNTNNYFTSVPKNFMELLTNQEAQQWVSGWRLNADSVLWGGHKVFMVKPEEPFQPVKEATQL [S169K],0.0684,0.0348,–,0.0329,–,–,–,–,–,0.032

# Same assay, conditions: temperature: 34 °C; time window: 0-4 h after rhamnose induction
Variant,area with substrate ENLYFYS,area with substrate ENLYFFS,area with substrate ENLYFHS,area with substrate ENLYFLS,area with substrate ENLYFRS,area with substrate ENLYFSS,area with substrate ENLYFVS,area with substrate ENLYFCS,area with substrate ENLYFDS
MGESLFKGPRDYNPISSSICHLTNESDGHTTSLYGIGFGPFIITNKHLFRRNNGTLVVQSLHGVFKVKDTTTLQQHLVDGRDMIIIRMPKDFPPFPQKLKFREPQREERICLVTTNFQTKSMSSMVSDTSCTFPSGDGIFWKHWIQTKDGQCGSPLVSTRGGFIVGIHSASNFTNTNNYFTSVPKNFMELLTNQEAQQWVSGWRLNADSVLWGGHKVFMVKPEEPFQPVKEATQL [D161G],0.0426,–,–,–,–,–,–,–,–
MGESLFKGPRDYNPISSSICHLTNESDGHTTSLYGIGFGPFIITNKHLFRRNNGTLVVQSLHGVFKVKDTTTLQQHLVDGRDMIIIRMPKDFPPFPQKLKFREPQREERICLVTTNFQTKSMSSMVSDTSCTFPSGDGIFWKHWIQTKDGQCGSPLVVTRDGFIVGIHSASNFTNTNNYFTSVPKNFMELLTNQEAQQWVSGWRLNADSVLWGGHKVFMVKPEEPFQPVKEATQL [S158V],0.044,0.0641,0.0534,0.0378,0.0695,0.0543,0.057,–,–
MGESLFKGPRDYNPISSSICHLTNESDGHTTSLYGIGFGPFIITNKHLFRRNNGTLVVQSLHGVFKVKDTTTLQQHLVDGRDMIIIRMPKDFPPFPQKLKFREPQREERICLVTTNFQTKSMSSMVSDTSCTFPSGDGIFWKHWIQTKDGQCGSPLVSTRDGFIVGIHSAYNFTNTNNYFTSVPKNFMELLTNQEAQQWVSGWRLNADSVLWGGHKVFMVKPEEPFQPVKEATQL [S171Y],–,0.078,–,0.0673,0.0579,–,–,0.045,0.0674
MGESLFKGPRDYNPISSSICHLTNESDGHTTSLYGIGFGPFIITNKHLFRRNNGTLVVQSLHGVFKVKDTTTLQQHLVDGRDMIIIRMPKDFPPFPQKLKFREPQREERICLVTTNFQTKSMSSMVSDTSCTFPSGDGIFWKHWIQTKDGQCGSPLVSTRDGFIVEIHSASNFTNTNNYFTSVPKNFMELLTNQEAQQWVSGWRLNADSVLWGGHKVFMVKPEEPFQPVKEATQL [G166E],–,0.0672,–,–,0.0495,–,–,–,–
MGESLFKGPRDYNPISSSICHLTNESDGHTTSLYGIGFGPFIITNKHLFRRNNGTLVVQSLHGVFKVKDTTTLQQHLVDGRDMIIIRMPKDFPPFPQKLKFREPQREERICLVTTNFQTKSMSSMVSDTSCTFPSGDGIFWKHWIQTKDGQCGSPLVSTRDGFIVGIHSWSNFTNTNNYFTSVPKNFMELLTNQEAQQWVSGWRLNADSVLWGGHKVFMVKPEEPFQPVKEATQL [A170W],–,0.0694,0.0535,–,–,–,–,–,–
MGESLFKGPRDYNPISSSICHLTNESDGHTTSLYGIGFGPFIITNKHLFRRNNGTLVVQSLHGVFKVKDTTTLQQHLVDGRDMIIIRMPKDFPPFPQKLKFREPQREERICLVTTNFQTKSMSSMVSDTSCTFPSGDGIFWKHWIQTKDGQCGSPLVSTRDGFIVGIHSESNFTNTNNYFTSVPKNFMELLTNQEAQQWVSGWRLNADSVLWGGHKVFMVKPEEPFQPVKEATQL [A170E],–,0.0634,–,–,–,–,–,–,–
MGESLFKGPRDYNPISSSICHLTNESDGHTTSLYGIGFGPFIITNKHLFRRNNGTLVVQSLHGVFKVKDTTTLQQHLVDGRDMIIIRMPKDFPPFPQKLKFREPQREERICLVTTNFQTKSMSSMVSDTSCTFPSGDGIFWKHWIQTKDGQCGSPLVSTRDGFIVGIHSASAFTNTNNYFTSVPKNFMELLTNQEAQQWVSGWRLNADSVLWGGHKVFMVKPEEPFQPVKEATQL [N172A],–,0.0573,–,0.0496,–,0.0654,–,–,–
MGESLFKGPRDYNPISSSICHLTNESDGHTTSLYGIGFGPFIITNKHLFRRNNGTLVVQSLHGVFKVKDTTTLQQHLVDGRDMIIIRMPKDFPPFPQKLKFREPQREERICLVTTNFQTKSMSSMVSDTSCTFPSGDGIFWKHWIQTKDGQCGSPLVSTRDGFIVGIHKASNFTNTNNYFTSVPKNFMELLTNQEAQQWVSGWRLNADSVLWGGHKVFMVKPEEPFQPVKEATQL [S169K],–,0.0481,–,0.0569,–,0.0457,0.0699,0.0936,–
